These results are taken from the supplement of paper PMC3334620.

Over roughly 33,000 sequences, “E-score (-0.5 to 0.5)” has its median near -0.012; the highest 2% begin near 0.27. Some of the results follow.

For this assay, the target named is T1, Vhr1 (UniProt P40522).
T1 sequence: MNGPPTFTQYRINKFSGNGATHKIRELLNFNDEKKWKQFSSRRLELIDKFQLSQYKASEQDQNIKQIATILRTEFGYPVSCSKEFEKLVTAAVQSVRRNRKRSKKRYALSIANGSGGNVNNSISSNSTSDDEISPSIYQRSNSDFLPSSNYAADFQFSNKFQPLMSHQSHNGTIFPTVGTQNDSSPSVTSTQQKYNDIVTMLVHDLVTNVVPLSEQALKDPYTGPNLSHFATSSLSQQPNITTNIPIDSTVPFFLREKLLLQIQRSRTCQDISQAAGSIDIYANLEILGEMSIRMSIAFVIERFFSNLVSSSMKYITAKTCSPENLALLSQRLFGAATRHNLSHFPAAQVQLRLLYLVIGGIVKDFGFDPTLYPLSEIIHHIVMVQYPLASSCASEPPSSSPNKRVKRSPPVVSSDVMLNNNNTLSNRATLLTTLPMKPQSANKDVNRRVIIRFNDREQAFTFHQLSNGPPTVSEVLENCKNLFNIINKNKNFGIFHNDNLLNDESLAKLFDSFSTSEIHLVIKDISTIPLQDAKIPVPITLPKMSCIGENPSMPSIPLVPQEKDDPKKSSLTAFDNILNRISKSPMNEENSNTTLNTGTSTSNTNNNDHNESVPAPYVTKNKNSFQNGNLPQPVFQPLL
In words: PBM E-score (8-mer binding enrichment) (E-score (-0.5 to 0.5)); higher = stronger / more preferred TF binding; most listed sequences are background and not binding sites. The following applies: protein concentration: 200 nM; construct: GST-full length. On the procedure: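 Universal 'all 10-mer' protein binding microarrays (Agilent AMADID 015681) probed with GST-tagged S. cerevisiae TFs (full-length or DBD) made by in vitro transcription/translation (PURExpress), about 100-200 nM. Bound TF was detected with fluorescent anti-GST. Each ungapped 8-mer (which stands for itself and its reverse complement) is scored by the PBM enrichment score (E-score), a modified Wilcoxon-Mann-Whitney statistic from -0.5 to +0.5, computed with the Universal PBM Analysis Suite. Scale: above 0.35 generally sequence-specific binding.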
As to AACTAAGT, the “PBM E-score” value was -0.025.

As for CCCTGCAG, the “PBM E-score” value turned out to be 0.028.

For the sequence CCTTCACG, the “PBM E-score” value is -0.159.

For GGCCAAGA, the “PBM E-score” value is -0.103.

In the case of CGTGAGAG, the “PBM E-score” value was -0.321.

With CCAAAGTC, the “PBM E-score” value came to 0.0864.

On to ATGTGTCC, for which the “PBM E-score” value is 0.157.

Take GGCTGGAA: the “PBM E-score” value was -0.035.

CGTTTTGC: the “PBM E-score” value was -0.099.

On to ACCTACAT, for which the “PBM E-score” value was 0.0188.

In the case of CGCAAGAG, the “PBM E-score” value is 0.0352.

With GGGGCTAC, the “PBM E-score” value was -0.0091.

Take ACGGTACT: the “PBM E-score” value turned out to be 0.00055.

On to GGATAGAC, for which the “PBM E-score” value was -0.179.

For AACATGAT, the “PBM E-score” value worked out at 0.229.

For CACGAACC, the “PBM E-score” value was -0.0392.

In the case of AAGCGATC, the “PBM E-score” value was -0.0527.

On to TAATCCTA, for which the “PBM E-score” value was -0.0628.

On to AAACACAC, for which the “PBM E-score” value amounted to 0.192.

Turning to AAAACCCG, the “PBM E-score” value was -0.17.

Consider CTATTCAC, for which the “PBM E-score” value came out at 0.0789.

In the case of AAGAGTGT, the “PBM E-score” value is -0.167.

With CAAGAAGA, the “PBM E-score” value turned out to be 0.0592.

As for GGGTTAGA, the “PBM E-score” value is -0.04.

CATCAACG: the “PBM E-score” value stood at 0.131.

As to ACATCACT, the “PBM E-score” value is 0.144.

Take GATAGGAC: the “PBM E-score” value is 0.0574.

As for TGGTACCA, the “PBM E-score” value stood at 0.0645.

In the case of ACGACATG, the “PBM E-score” value was found to be 0.107.

As for CAGCAATC, the “PBM E-score” value amounted to 0.0295.

Turning to CTTAGAAA, the “PBM E-score” value is -0.324.

With CTGCTCGC, the “PBM E-score” value is -0.0394.

On to CTGGATAC, for which the “PBM E-score” value was determined as 0.0905.

For the sequence CGCGCGGA, the “PBM E-score” value is 0.13.

For CTCGCCTC, the “PBM E-score” value is -0.165.

As for AACCTCGG, the “PBM E-score” value is -0.0382.

For GGTTAGAC, the “PBM E-score” value was -0.00016.

As for GGGCGAAA, the “PBM E-score” value is -0.052.

With ATTCTGCC, the “PBM E-score” value was determined as 0.022.

Take CAGAGACC: the “PBM E-score” value was 0.0328.

Consider AATAGAAG, for which the “PBM E-score” value was -0.116.

In the case of TAGCAGGA, the “PBM E-score” value is -0.0249.

Regarding AAGTTCTG, the “PBM E-score” value is -0.168.

ACGCGTTA: the “PBM E-score” value is -0.156.

On to ACGAGTTG, for which the “PBM E-score” value amounted to 0.0198.

As to GTTTATCA, the “PBM E-score” value is 0.167.

On to AGAGACTG, for which the “PBM E-score” value came to 0.0515.

With AGTTAGAT, the “PBM E-score” value is -0.0498.

On to ATCACCGC, for which the “PBM E-score” value stood at 0.174.

For ACCGAGCA, the “PBM E-score” value came to 0.0457.

As for ACTCGCCA, the “PBM E-score” value is 0.158.

As for GGAATGCA, the “PBM E-score” value stood at 0.0844.

Regarding ACTAGAAC, the “PBM E-score” value was -0.0635.

ACTTGCCA: the “PBM E-score” value was -0.00202.

On to CTCATAGC, for which the “PBM E-score” value was -0.0816.

With AGGGGGAT, the “PBM E-score” value is -0.258.

Regarding GAATTTTA, the “PBM E-score” value was -0.206.

ATGTGAGG: the “PBM E-score” value was determined as 0.0176.

Consider CCACAGAA, for which the “PBM E-score” value worked out at 0.0862.

As for GAAAACGC, the “PBM E-score” value is -0.262.

As to ATTGGGTA, the “PBM E-score” value was -0.0824.

For the sequence AATCGCAC, the “PBM E-score” value is -0.0344.

In the case of AACACGAT, the “PBM E-score” value was 0.19.

With ATTTATTC, the “PBM E-score” value was -0.0505.

Regarding GGTACATA, the “PBM E-score” value came to 0.156.

GATCGATA: the “PBM E-score” value was found to be 0.136.

ACGTAATA: the “PBM E-score” value stood at 0.128.

As for GGCCCTTA, the “PBM E-score” value is -0.148.

As to ATTATAGA, the “PBM E-score” value is -0.198.

Turning to CACTTAGG, the “PBM E-score” value is -0.0835.

Regarding CGGTTACG, the “PBM E-score” value is -0.157.

Consider CTCTTCGC, for which the “PBM E-score” value was -0.108.

Take CAGGGGAG: the “PBM E-score” value was found to be 0.0828.

AGGGTTCC: the “PBM E-score” value was -0.0923.

Take CCGGCGAC: the “PBM E-score” value was 0.126.

As for ACAATAAC, the “PBM E-score” value was found to be 0.119.

Turning to GCAACTCA, the “PBM E-score” value amounted to 0.0782.

With CTACCCAG, the “PBM E-score” value was determined as 0.0256.

Consider CCGCATCC, for which the “PBM E-score” value was 0.00835.

For TAGCCTGA, the “PBM E-score” value worked out at 0.0109.

Take CTGAAGCA: the “PBM E-score” value was -0.103.

Consider ACAAAAGG, for which the “PBM E-score” value was -0.167.

With GGAGACTA, the “PBM E-score” value turned out to be 0.164.

With ATTTCATG, the “PBM E-score” value is -0.037.

For GATATGGC, the “PBM E-score” value worked out at 0.0432.

For the sequence CCGGGAGG, the “PBM E-score” value was 0.021.
